Measurements taken from PubChem BioAssay AID504333 (National Center for Advancing Translational Sciences (NCATS), 2011).
The campaign covered roughly 360,000 compounds. About 16,000 (4.4%) were called active. The shares of active, inactive and inconclusive entries below differ from those in the screen. Calls come from the whole dose curve; as a rule, active = well fitted inhibition curve with a large enough effect; inconclusive = small, poorly fitted or top-dose-only effect; inactive = no such curve, though single readings can be large or run the other way. A potency beside an inconclusive call is a rough fit, not a confirmed value.

Target: Bromodomain adjacent to zinc finger domain protein 2B (Homo sapiens) (UniProt Q9UIF8)
Chain of UniProt Q9UIF8 (Q9UIF8 whole entry, looked up, the tested form may be a part): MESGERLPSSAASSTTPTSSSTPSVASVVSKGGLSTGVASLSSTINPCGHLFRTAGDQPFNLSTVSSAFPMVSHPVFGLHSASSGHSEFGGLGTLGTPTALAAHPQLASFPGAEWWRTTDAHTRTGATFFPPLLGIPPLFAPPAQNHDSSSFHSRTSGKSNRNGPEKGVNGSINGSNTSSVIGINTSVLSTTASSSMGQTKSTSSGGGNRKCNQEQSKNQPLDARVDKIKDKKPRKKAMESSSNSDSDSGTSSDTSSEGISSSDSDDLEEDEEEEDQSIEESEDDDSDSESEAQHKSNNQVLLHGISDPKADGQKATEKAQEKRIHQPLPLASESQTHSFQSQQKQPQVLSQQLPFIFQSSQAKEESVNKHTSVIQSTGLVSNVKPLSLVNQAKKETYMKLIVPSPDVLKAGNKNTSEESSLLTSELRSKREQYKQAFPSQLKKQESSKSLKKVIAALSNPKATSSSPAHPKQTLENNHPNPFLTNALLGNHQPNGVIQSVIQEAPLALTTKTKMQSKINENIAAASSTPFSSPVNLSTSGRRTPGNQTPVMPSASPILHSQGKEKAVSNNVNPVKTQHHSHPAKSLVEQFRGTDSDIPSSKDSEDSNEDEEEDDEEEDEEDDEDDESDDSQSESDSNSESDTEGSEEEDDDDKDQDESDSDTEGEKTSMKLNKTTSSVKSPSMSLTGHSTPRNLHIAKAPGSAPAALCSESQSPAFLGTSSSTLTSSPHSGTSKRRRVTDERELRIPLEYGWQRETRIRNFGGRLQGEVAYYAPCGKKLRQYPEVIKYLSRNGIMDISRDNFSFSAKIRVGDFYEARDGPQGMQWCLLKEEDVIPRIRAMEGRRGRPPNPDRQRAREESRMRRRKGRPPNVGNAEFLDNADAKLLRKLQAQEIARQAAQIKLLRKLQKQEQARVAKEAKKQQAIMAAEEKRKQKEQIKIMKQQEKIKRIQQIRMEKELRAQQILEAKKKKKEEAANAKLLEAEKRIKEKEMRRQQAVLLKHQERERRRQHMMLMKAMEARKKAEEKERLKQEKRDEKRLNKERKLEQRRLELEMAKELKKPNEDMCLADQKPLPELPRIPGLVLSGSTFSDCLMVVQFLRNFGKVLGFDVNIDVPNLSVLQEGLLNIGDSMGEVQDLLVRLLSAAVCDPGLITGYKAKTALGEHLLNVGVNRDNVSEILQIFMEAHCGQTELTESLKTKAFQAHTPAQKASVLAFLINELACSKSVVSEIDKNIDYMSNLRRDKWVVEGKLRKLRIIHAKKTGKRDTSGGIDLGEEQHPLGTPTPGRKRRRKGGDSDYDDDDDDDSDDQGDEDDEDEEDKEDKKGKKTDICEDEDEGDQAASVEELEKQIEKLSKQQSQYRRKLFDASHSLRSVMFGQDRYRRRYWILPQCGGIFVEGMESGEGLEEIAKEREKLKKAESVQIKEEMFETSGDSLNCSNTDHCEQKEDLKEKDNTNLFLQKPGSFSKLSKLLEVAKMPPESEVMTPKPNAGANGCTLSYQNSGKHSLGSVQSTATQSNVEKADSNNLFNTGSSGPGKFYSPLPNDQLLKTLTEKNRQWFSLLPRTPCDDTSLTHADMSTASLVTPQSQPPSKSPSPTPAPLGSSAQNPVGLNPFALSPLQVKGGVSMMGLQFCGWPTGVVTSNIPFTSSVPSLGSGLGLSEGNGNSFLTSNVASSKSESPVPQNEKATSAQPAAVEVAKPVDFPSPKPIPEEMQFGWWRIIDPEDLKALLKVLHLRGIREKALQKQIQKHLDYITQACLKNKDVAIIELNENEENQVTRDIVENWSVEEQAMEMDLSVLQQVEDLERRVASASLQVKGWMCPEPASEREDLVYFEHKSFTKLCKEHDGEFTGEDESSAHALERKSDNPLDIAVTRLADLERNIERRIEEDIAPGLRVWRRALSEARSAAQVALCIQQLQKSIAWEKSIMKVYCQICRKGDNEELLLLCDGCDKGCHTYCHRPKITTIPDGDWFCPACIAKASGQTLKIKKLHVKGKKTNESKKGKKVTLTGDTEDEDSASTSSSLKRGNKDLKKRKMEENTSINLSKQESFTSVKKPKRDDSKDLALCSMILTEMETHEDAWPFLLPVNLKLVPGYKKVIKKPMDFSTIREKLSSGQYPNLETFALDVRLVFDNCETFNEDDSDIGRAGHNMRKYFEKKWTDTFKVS
Experiment: qHTS Assay for Inhibitors of BAZ2B; note: nearly all actives have a fitted effect of over 60% in size
Settings: AlphaScreen BAZ2B-H3K14Ac peptide displacement; series mostly up to 114 µM
Summary of the method: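 AlphaScreen luminescence quantifies BAZ2B engagement of H3K14Ac peptide; the protein and biotinylated peptide are both at 50 nM final, buffer PBS pH 7.4 with 0.01% Tween-20, all steps at room temperature.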
Potency is the fitted concentration of half-maximal effect; tags give direction and shape of the fitted curve.

Compound	Potency
CCOc1ccc(-c2cc(C)n3nc(C(=O)Nc4ccc(C)c(C)c4)cc3n2)cc1	inactive
O=C(NC1CCCCCC1)C(=S)N1CCOCC1	inconclusive: 70.8 µM [inhibitor, single point]
COc1ccc(-c2ccc(CCC(=O)O)n2-c2ccccc2C(F)(F)F)cc1	inconclusive: 89.1 µM [inhibitor, single point]
CCN(/N=C/c1ccc(N(C)C)cc1)c1nc2ccccc2[nH]1	inconclusive: 25.1 µM [inhibitor, partial curve]
CCC1CN(CC(=O)NCc2cccc(Br)c2)c2ccccc2S1 (stereo unspecified)	inactive
Cc1ccc(C(=O)C[n+]2cc(Br)cc(Br)c2)cc1[N+](=O)[O-]	inconclusive: 50.1 µM [inhibitor, partial curve]
O=C(CCN1C(=O)/C(=C/c2ccccc2Cl)SC1=S)NC1=NCCS1	inconclusive: 7.94 µM [inhibitor, full curve]
CCn1ncc(N2CCOCC2)c(Cl)c1=O	inactive
O=C1NNC(c2ccccc2)=N/C1=C\c1ccco1	active: 70.8 µM
COc1cccc(NC(=S)N2CCC(Cc3ccccc3)CC2)c1	inconclusive: 56.2 µM [inhibitor, partial curve]
NS(=O)(=O)c1ccc(CCNC(=O)Cc2ccc(S(=O)(=O)N3CCCC3)s2)cc1	active: 56.2 µM
COCCN(CCOC)C(=O)c1ccc(SCc2ccc(C)cc2)c([N+](=O)[O-])c1	inconclusive: 50.1 µM [inhibitor, partial curve]
O=[N+]([O-])c1ccc2nonc2c1Nc1cccc(F)c1	inconclusive: 8.91 µM [inhibitor, full curve]
Cc1cccc(CNC(=O)c2ccc(Cn3c(SCc4cccc(F)c4)nc4cccnc43)cc2)c1	active: 11.2 µM
CCc1ccc(C2C(C#N)=C(N)OC3=C2C(=O)CCC3)s1 (stereo unspecified)	inactive
CCOc1ccc(-n2cc(-c3ccccc3)c3c(NCc4ccccc4)ncnc32)cc1	inconclusive: 15.8 µM [inhibitor, full curve, poor fit]
COc1ccc(C/C(C)=N/NC(=S)Nc2ccccc2)cc1	inactive
N#Cc1nc(-c2ccco2)oc1NCCCn1ccnc1	inconclusive: 89.1 µM [inhibitor, single point]
CCC(NC(=O)Nc1cc(OC)ccc1OC)c1c(-n2cccc2)sc2c1CCN(CC)C2 (stereo unspecified)	active: 39.8 µM
CCOc1cc(C2NC(=O)N(C)C(C)=C2[N+](=O)[O-])ccc1OC(C)=O (stereo unspecified)	inactive
CSc1ccccc1NC(=O)c1cc2ncc(Br)cn2n1	active: 56.2 µM
